In the RNAGym collection of RNA variant scans (doi:10.7554/elife.90254):
Read counts are not given, so values of variants with three or more changes are uncertain.

B1: LINE1-mini (parent)
chain: GGCAGAGCUCAACACAGCGUGGCAAAGUGGCUGUGGCUAGACUGCC

Variants of: B1
Experiment: self-cleavage, relative activity (ratio to wild type); higher = more cleavage; in vitro, sequencing; the parent is a self-cleaving ribozyme

Variant	self-cleavage
G2U C15G C18U C42A C46G	0.01
G2U C15U G17U A41G	0.05
G2U C23A C37U C42G	0
G2U C3U C37G	0.07
G2U A11G A26C C31A G44C	0
G2U G5A G36C C46G	0.05
G2U C31A C37G	0.02
G2U C13A C15G G27U	0.01
G2U C3G A6C C18A U20G G29C U32C U34C	0
G2U C10U G22A G29U G35U	0
G2U A14C A16G G19U G21A C23A U28G	0.02
G2U C8A G22A A39U	0.03
G2U A12U A25U U38C	0
G2U C13G A26U C42U	0.01
G2U C23G U32C	0.02
G2U A16G G22U U32A G36U	0
G2U C13U A16G G17U	0.02
G2U A16G G21C A26U U32G	0.01
G2U C3A U9G G17C A26U G36A C37A	0.46
G2U A12U A14G C45G	0.01
G2U A39C U43A	0.02

Variant	self-cleavage
G2U A24U U34C C37G	0.02
G2U A12U A14U U28G G36U A39G A41G	0.03
G2U C3A G5A C15U	0.77
G2U C13A C15U A26C	0.01
G2U C10A C23A A24U	0.01
G2U C31G G33C	0.03
G2U A16U C37U	0
G2U A41C G44A	0.04
G2U C8U G35C U38G	0
G2U C18U C42U	0.05
G2U A12U A16C A24G G29A G33A	0.01
G2U A26G C37A	0.01
G2U C10G G22A	0.02
G2U C10G C15U	0.03
G2U A11G C15U U20G G30U U34G G44A	0.01
G2U C8U C18U G29U C31G G35C	0.01
G2U A14C A39G	0.02
G2U A12U A16G C18A G40A	0.03
G2U C8U U20C G21A	0.01
G2U C31A G33A C42G	0.04
G2U C23U G35U C37G	0.08

Variant	self-cleavage
G2U C10U C13G A25U	0.01
G2U C3A G7U	0.18
G2U C13U G30A A39G	0.01
G2U C15G A41C	0.05
G2U C8A G19C U20C	0.04
G2U C15A G21C	0.07
G2U C8A C18G A41G C42G	0.02
G2U C3A U34A A39U	0
G2U C8A U9G G22A U43C	0.01
G2U C10U C18A U20C G21C G40A	0
G2U A11U G22A	0.01
G2U A11U G22C	0.03
G2U C23U C31A	0.03
G2U A11U U20C A26U U28A C31G	0.01
G2U C15U G33U	0.03
G2U G5U A6C G27U G40C A41U	0
G2U C3A G33U C45A C46U	0.06
G2U A16G A25C A39C	0.01
G2U C8U G17U G19U	0.03
G2U C18A A26C	0.06
G2U A24G G27A G30A C37G A41C U43G	0.01

Variant	self-cleavage
G2U C13U A16C G36U U38G G44A	0
G2U G5A A24C	0.04
G2U A14U G21U	0.02
G2U C10A G36U C37A U38A A39U	0.01
G2U C8U C13U G21C U28C	0.07
G2U C3U C18G G27A C31G G40C	0.04
G2U A16G U20C	0.05
G2U C3A A4C G27U G30U U32C C42A C45A	0.04
G2U C15U C45G	0.11
G2U C10G A11C A26G C45U	0
G2U C13U A25C A26U U38A G40U	0.11
G2U A16C G29C	0.07
G2U A12C C13A A25C C42G	0.02
G2U C3G G21A	0.39
G2U C13G G33U G36U C45G	0.01
G2U C10G A16G C45A	0.01
G2U C10A C13U A26G U28A U32C G36U	0.01
G2U C3U C15G	0.06
G2U C10A G27U C31U	0.01
G2U C3U C10U	0.04
